The values that follow come from patent US20050180956A1, “SSAO enzyme substrates for vasorelaxation, and methods of use thereof” (priority 2004, published 2005).

The test system of data set [1] is isolated human blood vessels. The settings on record: methylamine 1-1,000 μM.
Data set [2] has as its system isolated human blood vessels. Nature of the data set: tissue or blood. The settings on record: read-out: apparent EC50s in all three human vessels, approximate range.
In data set [3] the test system is rat thoracic aorta (TA). The settings on record: 10 min, 1 mmol/L, mean ± SE.
[4] abbreviates: NE-precontracted (1 μM) TA of 1-yr old Wistar rats.
Where [5] appears, read: NE-precontracted (1 μM) TA of 18-20 week old Sprague-Dawley rats.

Molecules are shown by their SMILES. Where two headings read alike, the source gives them in different places.

Consider `CN` [methylamine], for which the “adverse / toxic effects in isolated human blood vessels” value in data set [1] is “no observable adverse effects”. Moreover, the “adverse / toxic effects in isolated human blood vessels” value in data set [1] (listed as Methylamine) is given as “no observable long-lasting inhibitory or toxic effects”. In addition, the EC50 in data set [2] lay within 200 to 300 µM. For the same molecule, in data set [3] (setting [4]), the “% Response, contraction (C), rat Old W thoracic aorta” value was 3.0 ± 3.0% and the “% Response, relaxation (R), rat Old W thoracic aorta” value is 2.4 ± 2.4%. Moreover, in data set [3] (setting [5]), the “% Response, contraction (C), rat Young SD thoracic aorta” value is given as 12.5 ± 7.2% and the “% Response, relaxation (R), rat Young SD thoracic aorta” value worked out at 8.3 ± 8.3%.
